Data taken from PubChem BioAssay AID2451 (National Center for Advancing Translational Sciences (NCATS), 2010).
“And” between values parts separate entries of the source, which are not always exact repeats. Equal entries are not always repeated. The whole screen tested about 290,000 compounds, of which about 2,100 (0.72%) were called active. This list was built around the results that the source calls inconclusive (neither active nor inactive); the mix of calls is not that of the screen. The call rests on the fitted dose curve; in most records, active means well fitted inhibition curve with a large enough effect; inconclusive means small, poorly fitted or top-dose-only effect, or effect the other way; inactive means flat fitted curve, though single readings scatter. Potencies beside an inconclusive call are fits to weak or partial responses and may not hold up.

The compounds below were run against Fructose-bisphosphate aldolase (Giardia intestinalis (strain ATCC 50803 / WB clone C6)) (UniProt A8B2U2) (assay: qHTS Assay for Inhibitors of Fructose-1,6-bisphosphate Aldolase from Giardia Lamblia). Conditions: purified Giardia FBPA; series mostly up to 59.6 µM.
In short: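 Giardia FBPA (40 nM reagent) was preincubated 10 min at RT with compound (up to 57.5 uM final), then substrate plus GAPDH/TPI/NAD/arsenate coupling system with diaphorase/resazurin was added; resorufin fluorescence (525/598 nm) was read after 20 min.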
Further: nearly all actives have a fitted effect of over 55% in size.
Potency means the concentration at half of the fitted maximal effect; tags describe the fitted curve by direction and shape.

Chain of UniProt A8B2U2 (A8B2U2 whole entry, looked up): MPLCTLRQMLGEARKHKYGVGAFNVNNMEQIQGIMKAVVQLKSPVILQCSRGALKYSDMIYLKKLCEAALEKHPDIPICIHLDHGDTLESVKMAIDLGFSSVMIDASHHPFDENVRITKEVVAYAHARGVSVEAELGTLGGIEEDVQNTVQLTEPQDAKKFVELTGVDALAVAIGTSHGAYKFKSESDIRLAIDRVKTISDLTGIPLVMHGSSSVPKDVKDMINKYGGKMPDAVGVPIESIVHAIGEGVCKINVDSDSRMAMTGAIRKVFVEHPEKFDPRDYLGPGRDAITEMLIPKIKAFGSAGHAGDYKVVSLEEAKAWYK

Structure (SMILES)	Potency
CC[C@@]1([C@@H]2O[C@@H]([C@H]3O[C@@](O)(CO)[C@H](C)C[C@@H]3C)C[C@@H]2C)CC[C@H]([C@]2(C)CC[C@]3(C[C@H](O)[C@@H](C)[C@@H]([C@@H](C)[C@@H](OC)C(C)C(=O)O)O3)O2)O1 (stereo partly drawn)	inactive
COc1cc(CN2CCCCCC2)cc(OC)c1O	inconclusive: 14.1 µM [inhibitor, partial curve]
COc1ccc(N(C)C(=S)Nc2ccc3nc(C)c(C)nc3c2)cc1	inconclusive: 22.3 µM [inhibitor, partial curve]
O=C(c1cc(F)ccc1F)C1CCCN(C(=O)CCN2CCCCO2)C1 (stereo not drawn)	inactive
COc1ccc2c(c1)CC/C(=C\C=C\c1ccccc1)C2=O	inconclusive: 15.8 µM [inhibitor, single point]
COc1ccc(C(=O)N/N=C/c2ccc(N3CCOCC3)o2)cc1OC	inconclusive: 1.12 µM [inhibitor, partial curve]
COc1cc(NC(C)CCc2ccccc2)cc(OC)c1OC (stereo not drawn)	active: 12.6 µM
CN(CC(=O)Nc1ccc(OC(F)(F)F)cc1)C1CCCCC1	inconclusive: 15.8 µM [inhibitor, partial curve]
CCc1ccc(N2CSC3=C(C#N)C(c4cccs4)CC(=O)N3C2)cc1 (stereo not drawn)	inconclusive: 1.77 µM [inhibitor, partial curve]
CNc1nc2ccccc2n1CC(=O)c1ccccc1	inconclusive: 12.6 µM [inhibitor, partial curve, poor fit]
COc1ccc(-n2c(N)c(C(=O)NCC3CCCO3)c3nc4ccccc4nc32)c(OC)c1 (stereo not drawn)	inconclusive: 14.1 µM [inhibitor, partial curve]
COc1ccc(C(=O)CN2CCN(c3ncccn3)CC2)cc1	inconclusive: 14.1 µM [inhibitor, partial curve]
COc1ccc(CN(C)S(=O)(=O)c2nnc(NC(=O)c3ccc(C)cc3)s2)cc1OC	active: 25.1 µM
Cc1nn2c(Nc3ccccc3)c3c(nc2c1-c1ccccc1)CCC3	inactive
O=C(Cn1c(NCCCO)nc2ccccc21)c1ccc(Cl)cc1Cl	inconclusive: 25.1 µM [inhibitor, single point]
Cc1ccc(S(=O)(=O)/N=C2/C=C(Sc3ncn[nH]3)C(=O)c3ccccc32)c(C)c1	active: 1.58 µM
CC(=O)N(C1=C(Cl)C(=O)c2ccccc2C1=O)c1ccc(C(=O)O)cc1	active: 2.24 µM
O=C(O)c1cc(NS(=O)(=O)c2ccc(N3CCCCC3)c([N+](=O)[O-])c2)cc(C(=O)O)c1	inconclusive: 22.3 µM [activator, partial curve]
Cc1ccc(N=c2ssnc2Cl)cc1	inconclusive: 17.7 µM [inhibitor, single point]
CCCNC1=C(N(C(C)=O)c2cccc(F)c2)C(=O)c2ccccc2C1=O	inconclusive: 0.561 µM [inhibitor, full curve]
COc1ccc(-c2nc3cccc(C)n3c2NCC2CCCO2)cc1O (stereo not drawn)	inconclusive: 22.3 µM [inhibitor, partial curve]

Structure (SMILES)	Potency
Cc1ncc(CO)c(/C=N/NC(=O)c2cc(O)c(O)c(O)c2)c1O	inconclusive: 15.8 µM [inhibitor, partial curve]
CN(C)CCC#CC(O)(c1ccccc1)c1ccccc1	inactive
CC(C)C(=O)Nc1ccc(NC(=S)NC(=O)c2ccc([N+](=O)[O-])cc2)cc1	inconclusive: 17.7 µM [inhibitor, partial curve]
Cn1c(O)c(C=Nc2ccc(Br)cc2)sc1=O	inactive
Fc1ccc(OCCCn2ccnc2)cc1	inconclusive: 28.2 µM [inhibitor, partial curve]
CC#CC(=O)Nc1cc2c(Nc3ccc(F)c(Cl)c3)ncnc2cn1	inconclusive: 6.29 µM [inhibitor, full curve]
COc1ccc(Cc2nnc(NN)[nH]c2=O)cc1OC	inconclusive: 28.2 µM [inhibitor, single point]
CCN(CC)CCCn1c(C)cc2c(c1=O)C(c1ccc(OC)c(OC)c1OC)C(C#N)=C(N)O2 (stereo not drawn)	inconclusive: 25.1 µM [inhibitor, single point]
COc1ccc(C(=O)CC(=O)C(=O)Nc2cc([N+](=O)[O-])ccc2OC)cc1	inconclusive: 39.8 µM [inhibitor, single point]
C=CC1=C2C=C(C3CC3)N(C(CO)CO)C=C2C(=O)C(C)(OC(=O)c2ccco2)C1=O (stereo not drawn)	inconclusive: 1.41 µM [inhibitor, partial curve]
O=C(Cn1nnc(-c2cc(C(F)(F)F)cc(C(F)(F)F)c2)n1)NNC(=S)Nc1ccc(Cl)cc1	inconclusive: 12.6 µM [activator, partial curve]
COc1ccc2c(c1)-c1nc(/N=C/c3ccccc3O)sc1CC2	inconclusive: 15.8 µM [inhibitor, single point]
COC(=O)C1=C(O)/C(=C\c2ccc(CNS(=O)(=O)c3ccc(Cl)cc3)o2)N=C1C	inconclusive: 17.7 µM [inhibitor, partial curve]
C/C(=N\N=C1\NC(=O)C(CC(=O)O)S1)c1ccccn1 (stereo not drawn)	inconclusive: 0.889 µM [inhibitor, partial curve]
Cc1ccc(S(=O)(=O)/C=C/C#N)cc1	inconclusive: 15.8 µM [inhibitor, single point]
COC(=O)CCCC1=CC2=CC(=O)C(C)(OC(=O)c3cccs3)C(=O)C2=CN1CCc1ccccn1 (stereo not drawn)	inconclusive: 792 nM [inhibitor, full curve] and inconclusive: 1.58 µM [inhibitor, partial curve]
O=C(O)c1ccc(NC2=C(N3CCOCC3)C(=O)c3ccccc3C2=O)cc1	inconclusive: 5 µM [inhibitor, partial curve]
O=C(CSc1nnc(NC(=O)C2CC(=O)N(c3ccccc3)C2)s1)NCC1CCCO1 (stereo not drawn)	inconclusive: 31.6 µM [inhibitor, single point]
CC1(OC(=O)C2CCCC2)C(=O)C=C2C=C(c3ccsc3)N(Cc3ccccc3)C=C2C1=O (stereo not drawn)	inconclusive: 0.998 µM [inhibitor, full curve]
Fc1ccc(/C=N/n2cnn(Cc3ccccc3Cl)c2=S)cc1	inconclusive: 22.3 µM [inhibitor, single point]
Oc1ccc(CNc2ccccc2)c2cccnc12	inconclusive: 4.46 µM [inhibitor, single point]

Structure (SMILES)	Potency
COc1cc(CNc2ccc(N3CCCC3)cc2)cc(Cl)c1OC	active: 1.77 µM
C/C(Cn1nnc([N+](=O)[O-])n1)=N\NC(=O)c1ccc(Cl)c(Cl)c1	inconclusive: 15.8 µM [inhibitor, partial curve]
O=c1c2cc(N3CCOCC3)ccc2[nH]c(=S)n1Cc1ccccn1	inconclusive: 17.7 µM [inhibitor, partial curve]
Cc1ccccc1CN1CCN(C(=O)c2ccc(F)cc2)CC1	inconclusive: 12.6 µM [inhibitor, partial curve]
CCO[C@@H]1OC(C(=O)N2CCN(Cc3ccc4c(c3)OCO4)CC2)=C[C@H](c2ccc3c(c2)OCO3)[C@H]1CCCO	inactive
COc1ccc(NC(=O)N2c3ccc(OC)cc3C(C)=CC2(C)C)cc1	active: 11.2 µM
Nc1cccnc1Sc1cccc(Cl)c1	active: 0.998 µM
S=C(NCc1ccccc1)N1CCN(C2CCCCC2)CC1	inactive
Cc1ccc(C(=O)NC(=S)N2CCN(C)CC2)cc1Br	inconclusive: 15.8 µM [inhibitor, partial curve]
COC(=O)CCC(=O)OC1(C)C(=O)C=C2C=C(C3CC3)N(CC(C)C)C=C2C1=O (stereo not drawn)	inconclusive: 1.41 µM [inhibitor, full curve] and inconclusive: 561 nM [inhibitor, full curve]
CCc1ccc(Nc2n[n+](-c3ccccc3)c(-c3ccc(OC)c(Br)c3)s2)cc1	inconclusive: 25.1 µM [inhibitor, single point]
CC(C)=N/N=C1\NC(=O)C(C)S1 (stereo not drawn)	inconclusive: 15.8 µM [inhibitor, partial curve]
CCOC(=O)[C@]1(C#N)[C@@H]2C=CC(C(C)=O)=CN2[C@@H](C(N)=O)[C@@H]1c1ccsc1	inconclusive: 15.8 µM [inhibitor, partial curve]
CCCOc1ccc(NCC(=O)Nc2ccc(C)cc2C)cc1	inconclusive: 15.8 µM [inhibitor, single point]
COc1cc(/C=C2\SC(=S)N(CCC(=O)NCCc3ccccc3)C2=O)cc(OC)c1OC	inactive
O=C(Nc1nc(N2C(=O)c3ccccc3C2=O)n(-c2ccccc2)n1)c1ccc(Cl)cc1	inconclusive: 31.5 µM [activator, single point]
CCCc1c(OCCCOc2ccc(OCC(=O)O)cc2)ccc(C(C)=O)c1O	inactive
CC(C)CN(C(=O)CN1CCN(c2ccc(O)cc2)CC1)c1c(N)n(CC(C)C)c(=O)[nH]c1=O	inconclusive: 14.1 µM [inhibitor, partial curve]
O=C(Cc1ccccc1)N1CCC2(CC1)NCCc1[nH]cnc12	inconclusive: 39.8 µM [inhibitor, single point]
CCN=C1S/C(=C\c2ccc(Sc3ccc(Cl)cc3)o2)C(=O)N1CC	inactive
CC1=C(C(=O)O)N2C(=O)[C@@H](NC(=O)[C@H](N)c3ccccc3)[C@H]2SC1	inconclusive: 12.6 µM [inhibitor, partial curve] and inconclusive: 11.2 µM [inhibitor, partial curve]
